Source: paper PMC4336329 (PLoS ONE, 2015)
Screen size: about 310,000 compounds; about 2,200 (0.71%) showed an effect of 50% or more. Effects have a minus sign here. The list shows a part of the results.

Target: human ether-à-go-go-related gene (hERG) potassium channel (human, UniProt Q12809)
Assay: primary screen, population patch clamp on CHO cells stably expressing hERG

Sequence of human ether-à-go-go-related gene (hERG) potassium channel (Q12809 whole entry, looked up): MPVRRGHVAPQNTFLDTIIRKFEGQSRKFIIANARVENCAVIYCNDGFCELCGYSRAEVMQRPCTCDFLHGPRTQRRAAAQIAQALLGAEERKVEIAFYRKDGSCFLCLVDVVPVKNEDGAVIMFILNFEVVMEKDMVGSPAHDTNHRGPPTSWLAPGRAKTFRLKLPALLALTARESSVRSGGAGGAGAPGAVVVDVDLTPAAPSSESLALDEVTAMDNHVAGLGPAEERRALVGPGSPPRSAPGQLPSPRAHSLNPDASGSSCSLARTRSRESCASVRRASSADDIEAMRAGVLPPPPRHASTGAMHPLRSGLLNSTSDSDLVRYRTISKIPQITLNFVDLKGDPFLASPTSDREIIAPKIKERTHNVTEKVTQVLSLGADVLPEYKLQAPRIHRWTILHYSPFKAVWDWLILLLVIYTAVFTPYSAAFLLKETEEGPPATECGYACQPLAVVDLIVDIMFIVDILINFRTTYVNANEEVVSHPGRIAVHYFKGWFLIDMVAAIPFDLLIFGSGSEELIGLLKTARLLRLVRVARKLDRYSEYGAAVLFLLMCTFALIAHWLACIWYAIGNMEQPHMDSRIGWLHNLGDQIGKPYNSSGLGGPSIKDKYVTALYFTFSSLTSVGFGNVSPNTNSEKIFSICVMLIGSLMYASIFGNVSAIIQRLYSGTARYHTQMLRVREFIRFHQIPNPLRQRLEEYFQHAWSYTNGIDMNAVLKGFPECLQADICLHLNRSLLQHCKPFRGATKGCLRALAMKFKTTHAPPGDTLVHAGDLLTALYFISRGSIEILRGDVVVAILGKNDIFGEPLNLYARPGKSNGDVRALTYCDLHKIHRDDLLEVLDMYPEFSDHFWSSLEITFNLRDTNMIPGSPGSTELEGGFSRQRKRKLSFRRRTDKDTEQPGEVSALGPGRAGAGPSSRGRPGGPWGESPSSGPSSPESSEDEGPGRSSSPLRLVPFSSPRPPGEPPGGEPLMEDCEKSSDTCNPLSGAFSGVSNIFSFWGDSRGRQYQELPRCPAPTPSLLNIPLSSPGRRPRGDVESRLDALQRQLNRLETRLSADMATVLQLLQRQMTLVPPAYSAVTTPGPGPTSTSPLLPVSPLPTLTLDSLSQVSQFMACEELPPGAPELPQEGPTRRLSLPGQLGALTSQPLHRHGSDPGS

Q: `CSc1nsc(SCC(=O)Nc2ccccc2C(=O)O)n1` was tested. Which “hERG current change (%, negative = inhibition) at 1uM” value did it give?
A: 10.5%

Q: With `Cc1occc1C(=O)Nc1ccc2c(c1)OCCO2` as the compound, how does the “hERG current change (%, negative = inhibition) at 1uM” value read?
A: -8.12%

Q: With `O=C(O)CC(=O)Nc1cc(Cl)ccc1O` as the compound, how does the “hERG current change (%, negative = inhibition) at 1uM” value read?
A: 6.94%

Q: For `Cc1nn(S(=O)(=O)N2CCCCC2)c(C)c1Br`, which “hERG current change (%, negative = inhibition) at 1uM” value is on record?
A: 15.6%

Q: How did the “hERG current change (%, negative = inhibition) at 1uM” value turn out when `OCC[C@@H]1C[C@H](O)[C@@H](O)[C@@]2(CCc3ccccc3O2)O1` was run?
A: 14.4%

Q: How did the “hERG current change (%, negative = inhibition) at 1uM” value turn out when `CC(=O)N/C(=N/c1nc(C)cc(C)n1)Nc1ccc(C)cc1C` was run?
A: 4.11%

Q: For `C/C(=N\NC=O)c1ccncc1`, which “hERG current change (%, negative = inhibition) at 1uM” value is on record?
A: 3.11%

Q: For `CC(C)(C)C(=O)C1=C(O)C(=O)N(Cc2ccccc2)C1c1ccccc1Cl` (stereo not drawn), which “hERG current change (%, negative = inhibition) at 1uM” value is on record?
A: 12.4%

Q: Which “hERG current change (%, negative = inhibition) at 1uM” value does the source give for `Cc1ccc(NC(=O)C2(NC(=O)c3cccc(N4C(=O)CSC4c4ccccc4)c3)CCCCC2)cc1` (stereo not drawn) here?
A: 7.52%

Q: For `CC(C)(C)c1ccc(C(=O)CSc2ncn[nH]2)cc1`, which “hERG current change (%, negative = inhibition) at 1uM” value is on record?
A: 6.35%

Q: With `CC1(C)NC(=O)N(CC(=O)N2CCCC(C(F)(F)F)C2)C1=O` (stereo not drawn) as the compound, how does the “hERG current change (%, negative = inhibition) at 1uM” value read?
A: 5.97%

Q: With `Cc1ccc(C)c(S(=O)(=O)c2c[nH]c(=S)[nH]c2=O)c1` as the compound, how does the “hERG current change (%, negative = inhibition) at 1uM” value read?
A: 8.25%

Q: Which “hERG current change (%, negative = inhibition) at 1uM” value does the source give for `CCOC(=O)c1c(C)c(C(=O)N2CCC3(CC2)OCCO3)c(C)n1CC` here?
A: 15%

Q: Which “hERG current change (%, negative = inhibition) at 1uM” value does the source give for `COc1ccc(NC(=S)NC(=O)CC(C)C)c(OC)c1` here?
A: 6.32%

Q: Which “hERG current change (%, negative = inhibition) at 1uM” value does the source give for `CCOc1ccc(C2C3=C(Nc4nc(N)[nH]c(=O)c42)c2ccccc2C3=O)cc1` (stereo not drawn) here?
A: -4.6%

Q: How did the “hERG current change (%, negative = inhibition) at 1uM” value turn out when `CCCNC(=S)Nc1ccc(Cl)cc1C` was run?
A: 9.67%

Q: For `Cc1ccc(-c2csc(NC(=O)c3cnccn3)n2)cc1C`, which “hERG current change (%, negative = inhibition) at 1uM” value is on record?
A: 6.98%

Q: How did the “hERG current change (%, negative = inhibition) at 1uM” value turn out when `O=C(Nc1ccc2c(c1)nc1n2CCSC1)c1ccccc1` was run?
A: -6.73%

Q: `O=C(CSCc1ccc(F)cc1)Nc1ccccc1C(=O)N1CCOCC1` was tested. Which “hERG current change (%, negative = inhibition) at 1uM” value did it give?
A: 5.08%

Q: For `Cc1cc(CN(C)C(=O)CC2C(=O)NCCN2Cc2c(F)cccc2Cl)n[nH]1` (stereo not drawn), which “hERG current change (%, negative = inhibition) at 1uM” value is on record?
A: 9.39%

Q: `CC(NC(=O)C1CCN(S(=O)(=O)c2cccs2)CC1)c1cccc(Cl)c1` (stereo not drawn) was tested. Which “hERG current change (%, negative = inhibition) at 1uM” value did it give?
A: 2.19%

Q: For `CCC(CC)C1C(C#N)=C(N)SC(N)=C1C#N`, which “hERG current change (%, negative = inhibition) at 1uM” value is on record?
A: 8.44%

Q: `C[n+]1ccn(CC(=O)c2ccc(Br)cc2)c1.[Br-]` was tested. Which “hERG current change (%, negative = inhibition) at 1uM” value did it give?
A: 5.11%

Q: `O=C(Cc1ccc(Cl)cc1)Nc1cccc2ncccc12` was tested. Which “hERG current change (%, negative = inhibition) at 1uM” value did it give?
A: 11.9%

Q: Which “hERG current change (%, negative = inhibition) at 1uM” value does the source give for `CCC1(C(=O)O)NC(c2cc(OC)ccc2O)C2C(=O)N(Cc3ccccc3)C(=O)C21` (stereo not drawn) here?
A: 11%

Q: With `COc1cccc(C(=O)Oc2cc(-c3ccccc3)no2)c1` as the compound, how does the “hERG current change (%, negative = inhibition) at 1uM” value read?
A: 10.8%

Q: With `CCc1ccc(C(=O)COC(=O)CNC(=O)c2ccco2)cc1` as the compound, how does the “hERG current change (%, negative = inhibition) at 1uM” value read?
A: -0.561%
